# Test results: PubChem BioAssay (Tox21)
# Values joined by “and” are separate entries in the source; they are usually repeats but may differ in a detail not shown here. Equal values may be shown once. Inconclusive results, whose numbers are uncertain, are shown with a selection of clear calls. A potency beside an inconclusive call is a rough fit, not a confirmed value. Active and inactive are the calls of the source. Calls follow the shape of the dose curve; as a rule, active = well fitted cell-killing curve with a large enough effect in the repeat runs; inconclusive = weak or mixed curves; inactive = no such curve, though single readings can be large or run the other way.
# Assay: qHTS assay for identifying genotoxic compounds that show differential cytotoxicity against isogenic chicken DT40 cell lines with known DNA damage response pathways - Rad54/Ku70 mutant cell line (AID 743015); also: nearly all actives have a fitted effect of over 60% in size
# Conditions: DT40 Rad54/Ku70 mutant viability, CellTiter-Glo, 40 h; activity change, negative = cytotoxicity: at 66.8 µM (top of the series)
# % is scaled to controls: 0 for no effect and ±100 for the full control effect; potency is read from the fitted curve at half-maximal effect; tags tell the direction and shape of the fitted curve.
SMILES,Potency,"activity change, negative = cytotoxicity"
CCN(CCN)c1cccc(C)c1,"inconclusive: 69.2 µM [cytotoxic, single point]",–
Nc1ccc2cc3ccccc3cc2c1,"inconclusive: 69.8 µM [cytotoxic] and inconclusive: 15.4 µM [cytotoxic, partial curve]",–
O=C(CCN1CCC(c2ccccc2)C1)c1ccc2c(c1)OCCO2 (stereo not drawn),active: 4.22 µM,–
O=S(=O)(Oc1ccc(Cl)cc1Cl)c1ccccc1,"inconclusive: 69.8 µM [cytotoxic, single point]",–
c1ccc2sc(SN(C3CCCCC3)C3CCCCC3)nc2c1,"inconclusive: 76 µM [cytotoxic, single point]",–
CN(C)CCN1C(=O)c2ccccc2N(C)c2ccccc21,–,inactive: -5.32%
CCCCCCC(=O)c1ccccc1,"inconclusive: 68.6 µM [cytotoxic, single point]",–
Oc1ccc2ccccc2c1N=Nc1ccccc1,"inconclusive: 24.3 µM [cytotoxic, partial curve]",–
COC(=O)/C=C/c1ccccc1,"inconclusive: 24.3 µM [rising, partial curve, poor fit]",–
Oc1ccc2c(c1)OCO2,"inconclusive: 68 µM [cytotoxic, single point]",–
CC(COCC(C)OC(=O)c1ccccc1)OC(=O)c1ccccc1 (stereo not drawn),"inconclusive: 76.3 µM [cytotoxic, partial curve, poor fit]",–
C=CC(=O)NC(C)(C)CS(=O)(=O)O,"inconclusive: 78.1 µM [partial curve, poor fit]",–
Nc1nc(-c2ccccc2)cs1,–,inactive: -12.1%

# Assay: qHTS assay to identify small molecule antagonists of the androgen receptor (AR) signaling pathway - cell viability counter screen (AID 743033; also: nearly all actives have a fitted effect of over 45% in size)
# Conditions: AR-bla HEK293 viability, CellTiter-Glo luminescence, 16 h; activity change, negative = cytotoxicity: at 58.5 µM (top of the series)
SMILES,"activity change, negative = cytotoxicity",Potency
CCC(=O)OC,inactive: -0.803% [at 78.9 µM],–
C[C@@H](O[C@H]1OCCN(Cc2n[nH]c(=O)[nH]2)[C@H]1c1ccc(F)cc1)c1cc(C(F)(F)F)cc(C(F)(F)F)c1,–,"inconclusive: 23.9 µM [cytotoxic, partial curve]"
OC(CCN1CCCC1)(c1ccccc1)C1CCCCC1 (stereo not drawn),–,inconclusive: 0.0011 µM [cytotoxic]
CC[C@]1(O)C[C@@H]2CN(CCc3c([nH]c4ccccc34)[C@@](C(=O)OC)(c3cc4c(cc3OC)N(C)[C@H]3[C@@](O)(C(=O)OC)[C@H](OC(C)=O)[C@]5(CC)C=CCN6CC[C@]43[C@@H]65)C2)C1,–,"inconclusive: 8.5 nM [cytotoxic, partial curve, poor fit] and inconclusive: 30.1 nM [cytotoxic, partial curve, poor fit]"
Cc1c(F)c(N2CCNC(C)C2)cc2c1c(=O)c(C(=O)O)cn2C1CC1 (stereo not drawn),–,"inconclusive: 6.74 µM [rising, partial curve, poor fit]"
CC1(C)CC(OC(=O)CCCCCCCCC(=O)OC2CC(C)(C)NC(C)(C)C2)CC(C)(C)N1,inactive: -1.16% [at 27 µM],–
O=C(Nc1cccc(Cl)c1)OCC#CCCl,–,active: 49 µM
CN1CC[C@H](c2c(O)cc(O)c3c(=O)cc(-c4ccccc4Cl)oc23)[C@H](O)C1,–,"inconclusive: 0.0952 µM [cytotoxic, full curve]"
c1ccc(C[n+]2cccc3ccccc32)cc1,–,"inconclusive: 24.5 µM [cytotoxic, partial curve, poor fit]"
COc1cc(N)c(Cl)cc1C(=O)NC1CCN(CCCOc2ccc(F)cc2)CC1OC (stereo not drawn),inactive: -39.9% [at 27 µM],–
CC(C)(C)C(=O)C1C(=O)c2ccccc2C1=O,–,inconclusive: 54.9 µM [cytotoxic]
C=Cc1ccc(S(=O)(=O)O)cc1,–,"inconclusive: 34.7 µM [cytotoxic, partial curve, poor fit]"
N=C1N=C(N)c2ccccc21,–,"inconclusive: 15.5 µM [cytotoxic, full curve]"
O=C1Cc2ccccc2N1c1c(Cl)cccc1Cl,–,"inconclusive: 30.9 µM [cytotoxic, partial curve, poor fit]"
CCCCCCNC(=O)n1cc(F)c(=O)[nH]c1=O,–,"inconclusive: 1.2 µM [cytotoxic, full curve, poor fit]"
CC(C)n1nc(-c2cc3cc(O)ccc3[nH]2)c2c(N)ncnc21,–,"inconclusive: 2.39 µM [cytotoxic, full curve]"
C=C(C)[C@@H]1CCC2=CCC[C@@H](C)[C@]2(C)C1,inactive: -9.17%,–
CCO[Si](CC(C)C)(OCC)OCC,–,"inconclusive: 54.9 µM [cytotoxic, single point]"
CCC=CC#N,inactive: -2.96%,–
CC(C)N=C(N)/N=C(\N)Nc1ccc(Cl)cc1,–,inconclusive: 0.0006 µM [cytotoxic]
